# Out of some 310,000 compounds screened, about 14,000 (4.5%) showed an effect of 50% or more. The effect is printed as a negative number. The list shows a part of the results.
# Target: human ether-à-go-go-related gene (hERG) potassium channel (human, UniProt Q12809)
# Test: primary screen, population patch clamp on CHO cells stably expressing hERG
# 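Further: peak tail current of the secondary pulse compared with the same well before compound.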
# Chain of human ether-à-go-go-related gene (hERG) potassium channel (Q12809 whole entry, looked up): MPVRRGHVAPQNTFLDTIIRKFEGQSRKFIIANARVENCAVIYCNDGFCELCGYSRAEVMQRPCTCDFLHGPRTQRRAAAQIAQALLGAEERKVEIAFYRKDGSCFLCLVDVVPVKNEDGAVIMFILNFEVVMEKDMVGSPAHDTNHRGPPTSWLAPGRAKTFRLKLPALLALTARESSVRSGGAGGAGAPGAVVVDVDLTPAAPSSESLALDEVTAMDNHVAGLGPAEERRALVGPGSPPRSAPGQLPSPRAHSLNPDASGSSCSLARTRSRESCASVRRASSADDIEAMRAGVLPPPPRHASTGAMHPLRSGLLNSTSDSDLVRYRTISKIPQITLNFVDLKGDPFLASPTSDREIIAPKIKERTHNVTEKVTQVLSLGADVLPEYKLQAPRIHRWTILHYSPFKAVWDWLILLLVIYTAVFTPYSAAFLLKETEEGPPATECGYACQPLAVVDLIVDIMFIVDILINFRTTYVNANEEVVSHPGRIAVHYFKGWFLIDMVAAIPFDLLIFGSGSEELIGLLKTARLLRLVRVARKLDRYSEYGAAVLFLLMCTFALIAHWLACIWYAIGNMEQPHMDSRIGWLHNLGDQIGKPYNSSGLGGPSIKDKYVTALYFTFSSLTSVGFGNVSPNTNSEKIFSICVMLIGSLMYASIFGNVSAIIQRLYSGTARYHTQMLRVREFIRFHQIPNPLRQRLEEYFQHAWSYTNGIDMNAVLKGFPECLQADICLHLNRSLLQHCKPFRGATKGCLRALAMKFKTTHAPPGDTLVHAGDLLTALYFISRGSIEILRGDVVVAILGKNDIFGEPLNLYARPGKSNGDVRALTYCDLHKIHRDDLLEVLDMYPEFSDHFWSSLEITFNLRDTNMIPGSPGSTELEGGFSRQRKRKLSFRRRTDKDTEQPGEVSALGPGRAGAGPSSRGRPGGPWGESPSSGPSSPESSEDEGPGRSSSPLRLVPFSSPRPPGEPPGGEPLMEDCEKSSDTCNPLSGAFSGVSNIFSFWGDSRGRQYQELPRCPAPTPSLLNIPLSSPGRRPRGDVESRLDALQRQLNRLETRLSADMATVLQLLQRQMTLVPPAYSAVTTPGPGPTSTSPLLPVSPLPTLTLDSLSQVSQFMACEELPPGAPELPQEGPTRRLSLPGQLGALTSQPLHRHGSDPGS
row,SMILES,"hERG current change (%, negative = inhibition) at 10uM [%]"
1,CN1/C(=C/C(=O)c2nc(S(C)(=O)=O)ncc2Cl)C(C)(C)c2ccccc21,-29.9
2,O=C(c1cc(-c2ccccn2)nc2ccc(Cl)cc12)N1CCN(CCc2ccccc2)CC1,6.73
3,CCN=C(Nc1ccc2c(c1)OCO2)SC1CC(=O)N(c2ccccc2F)C1=O (stereo not drawn),-14.8
4,O=C(CCC(=O)N1CCCCC1)Nc1nnc(C2CCCCC2)s1,9.81
5,COCCNC(=O)C(c1ccco1)N(C(=O)Cn1nnc2ccccc21)c1cccc(C)c1C (stereo not drawn),-1.46
6,O=C(NNC(=O)c1cc(-c2ccc(Cl)cc2)nc2ccccc12)c1csc(N2CCOCC2)n1,-22.9
7,O=C(Cc1ccccc1Cl)NC1(O)C(=O)c2ccccc2C1=O,12.5
8,NC(=O)C[C@@H]1NC(=O)CNC(=O)c2cc([N+](=O)[O-])cc(I)c2NCCC(C(N)=O)NC1=O (stereo partly drawn),5.47
9,O=[N+]([O-])c1ccc2c(c1)C(O)n1nc(-c3ccc(Cl)cc3Cl)nc1S2 (stereo not drawn),17.4
10,CC(=O)Nc1ccc(CN2CCN(CCC(C)C)C(CCO)C2)cc1 (stereo not drawn),19.7
11,Cc1cccc(OCc2n[nH]c(=S)n2C2CCCCC2)c1,12
12,Cc1ccc2cc(CCNC(=O)CCCc3ccccc3)c(=O)[nH]c2c1C,4.88
13,Cc1ccc(S(=O)(=O)N(Cc2cc3ccccc3[nH]c2=O)c2cccc(C)c2)cc1,7.79
14,NS(=O)(=O)c1ccc(CNS(=O)(=O)c2ccc(Cl)nc2)cc1,13.6
15,O=C(CS(=O)(=O)c1ccc2ccccc2c1)Nc1ccccc1Cl,5.27
16,O=C(c1ccc(F)c(S(=O)(=O)N2CCOCC2)c1)N1CCc2ccccc21,-21.2
17,Cn1c(CN2CCCCC2)nc2cc(NC(=O)c3ccccc3Cl)ccc21,-8.74
18,CCn1c(=N)n(CC(O)COc2cccc(C)c2)c2ccccc21.Cl (stereo not drawn),-58.6
19,Cc1cc(C(=O)N2CCc3ccccc32)n(-c2ccccc2)n1,-3.22
20,CN(Cc1ccccc1NCC(=O)Nc1ccccc1C#N)C1CCCCC1,-33
21,COC(=O)c1ccc(S(=O)(=O)N2CCC(O)CC2)n1C,9.79

row,SMILES,"hERG current change (%, negative = inhibition) at 10uM [%]"
1,Cc1ccc(CNc2oc(-c3ccco3)nc2S(=O)(=O)c2ccccc2)cc1,-14.3
2,Cc1noc(C)c1C(=O)N1CCN(c2ccccc2O)CC1,22.4
3,CCN(CC)S(=O)(=O)c1cccc(C(=O)N[C@H](C(=O)NCc2ccccc2F)C(C)C)c1,-7.93
4,CCN(CC)C(=O)c1ccc(C(=O)Nc2ccc(F)cc2)cc1,-8.59
5,O=C(NCc1ccc(Cl)cc1)c1n[nH]c([N+](=O)[O-])c1Cl,-14.8
6,CCc1ccc(Oc2coc3cc(O)ccc3c2=O)cc1,3.61
7,CC(NC(=O)c1cccs1)c1nnc(SCc2ccc(Cl)cc2Cl)n1C (stereo not drawn),-24.8
8,Cc1ccc(N(C(=O)C2CCC(=O)N2)C2(C(=O)NC3CCCCC3)CCCCC2)cc1 (stereo not drawn),-0.0893
9,CC(C)c1ccc(NS(=O)(=O)c2ccc3c(c2)NC(=O)CO3)cc1,13.3
10,O=C1C(=O)c2cccc3cccc1c23,11.9
11,COc1ccc(OC)c(C2C(C(C)=O)=C(O)C(=O)N2c2ccc(O)cc2)c1 (stereo not drawn),13.3
12,NC(=O)C1(N2CCCCC2)CCN(Cc2ccc(F)cc2)CC1,-6.92
13,O=C1CCN1C1(C(=O)NC2CCCCC2)CCCC1,8.6
14,CC(=O)c1c(N2CCN(c3cccc(Cl)c3)CC2)nc(=S)n(-c2ccccc2)c1C,-68.8
15,COc1ccc(Cn2c(=S)[nH]c3cc(C(=O)NCc4cccnc4)ccc3c2=O)cc1,12.3
16,CC(C)(C)NC(=S)N/N=C\c1ccc(-c2ccc([N+](=O)[O-])cc2)o1,2.48
17,Cc1ccc(CN2CCN(/N=C/c3ccc(C)s3)CC2)cc1,-39.9
18,COc1cccc(/C=N/Nc2ccc(Cl)nn2)c1OC,15.6
19,Cc1ccc(S(=O)(=O)N2[C@@H](c3cccc(Cl)c3)C(C(=O)O)=CC[C@H]2c2cccc(Cl)c2)cc1,3.05
20,COc1cc([N+](=O)[O-])c2ncsc2c1,19.3
21,Cc1ccccc1OCCC(=O)Nc1ccccc1C(=O)NC1CC1,10.2

row,SMILES,"hERG current change (%, negative = inhibition) at 10uM [%]"
1,CC(NC(=O)C1(S(=O)(=O)c2ccc(Cl)cc2)CC1)c1ccccc1 (stereo not drawn),-17
2,COc1ccc(C(=O)Nc2ccccc2N2CCOCC2)cc1Br,-30.6
3,CCN(CC)C(=O)c1ccc2c(=O)n(Cc3ccc4c(c3)OCO4)c(=S)[nH]c2c1,8.29
4,Cc1nnc(SCC(=O)Nc2ccc(N3CCOCC3)cc2)n1-c1ccccc1,-14.5
5,CCn1c(SC(=O)NC2CCCCC2)nnc1-c1cccs1,-1.02
6,O=C(NC1CCCC1)C1CCCN(S(=O)(=O)c2ccc(F)cc2)C1 (stereo not drawn),16.2
7,O=C1OC(CCl)CN1Cc1c(Cl)cccc1Cl (stereo not drawn),-0.492
8,N#C[C@@H]1[C@@H]2C(=O)N(c3ccc4c(c3)OCCO4)C(=O)[C@@H]2C2c3ccccc3C=CN21 (stereo partly drawn),-4.52
9,FC(F)(F)c1cc(N2CCN(Cc3ccccc3)CC2)c2ccccc2n1,10.9
10,CCOC(=O)c1c(NC(=O)C2C3C=CC(C3)C2C(=O)O)sc2c1CCCC2 (stereo not drawn),19.1
11,CCCOc1cccc(-c2cc(C(=O)NN)c3ccccc3n2)c1,-36.1
12,COc1ccc(CNCC2COc3ccccc3O2)cc1.O=C(O)C(=O)O (stereo not drawn),-17.8
13,Cc1ccc(NC(=O)c2cc(-c3ccc(C)o3)nc3ccccc23)nc1,2.33
14,Cc1ccc(/C=N\NC(=O)COc2ccc(C)cc2[N+](=O)[O-])cc1,-9.9
15,CCOC(=O)C1CCN(C(=O)COc2ccc(N(C)S(=O)(=O)c3ccc(OCC)cc3)cc2)CC1,-4.08
16,NCCCNC(=O)Cn1c(=O)c2c3c(sc2n(Cc2ccccc2)c1=O)CCCC3,15.1
17,Cc1ccc(NC(=O)C2CC(=O)N/C(=N/N=C/c3ccco3)S2)cc1C (stereo not drawn),-6.98
18,CCOC(=O)C1CCCCN1C(=O)CCc1c(C)nc2cc(-c3ccccc3)nn2c1C (stereo not drawn),-64.4
19,O=C(Nc1cccc(Cl)c1)Nc1cc(S(=O)(=O)N2CCOCC2)ccc1N1CCCC1,-38.9
20,COc1ccccc1NC(=O)NC1(C(=O)NCC2CCCO2)CCCCC1 (stereo not drawn),15.7
21,CC1(C)CCC(=O)N2CC[C@H]3C[C@H](OC(=O)Nc4ccc(Br)cc4)C[C@@H]1[C@H]32,4.11

row,SMILES,"hERG current change (%, negative = inhibition) at 10uM [%]"
1,O=C(CN1C(=O)COc2ccccc2C1=O)c1ccc2c(c1)OCCO2,15.6
2,Oc1ccc(-c2cc(-c3ccc(O)cc3)nc(-c3ccccc3)n2)cc1,20.1
3,COc1ccccc1NC(=O)c1ccc(N2CC3CC(C2)c2cccc(=O)n2C3)c(NC(=O)c2cccnc2)c1 (stereo not drawn),6.33
4,COc1ccc(NC2=C3CCCC=C3N(c3ccc(OC)cc3)C2=O)cc1,15.3
5,COc1ccc(-c2nc(CSCC(=O)N3CCN(C)CC3)c(C)o2)cc1OC,11.7
6,COc1ccccc1C1C(C(N)=O)=C(C)Nc2nc(-c3ccc(Cl)cc3)nn21 (stereo not drawn),-10.4
7,COc1ccc(S(=O)(=O)N2CCN(C(=O)CN3C(=O)NC4(CCCC4)C3=O)CC2)cc1,13.9
8,N/C(=N\OC(=O)c1ccco1)c1ccc(Cl)cc1,15.3
9,COc1cc(C)c(C(=O)Oc2cc(C)c(C(=O)O)c(O)c2C)c(O)c1C,-0.636
10,Cn1c(CCC(=O)Nc2ccccc2F)nnc1SCC(=O)Nc1ccccc1Cl,0.612
11,O=C(Nc1cc(C(F)(F)F)ccc1F)C1CCC1,-5.16
12,Cn1cc(-c2nnnn2-c2ccccc2)c(=O)c2ccccc21,-8.94
13,O=c1c2c(nc3cc(-c4cccc(Cl)c4)[nH]n13)CCCC2,8.99
14,CN(c1ccc(OCC(=O)N2CCN(c3ccc(F)cc3)CC2)cc1)S(=O)(=O)c1cccs1,-58.7
15,O=C(Nc1cccc(S(=O)(=O)N2CCOCC2)c1)c1cn(-c2ccccc2)nc1-c1ccccc1,-5.73
16,O=C(N/N=C/c1cccnc1)C1CC1(c1ccccc1)c1ccccc1 (stereo not drawn),-55.6
17,COc1ccc2c(=O)c(-c3cnn(-c4ccccc4)c3)c(C)oc2c1,0.374
18,COc1ccc(CCNC(=O)c2cc(-c3cc(Cl)cc(Cl)c3)oc2C)cc1,-9.71
19,C=CCNC(=O)c1ccc(C2SCC(=O)N2Cc2ccccc2)cc1 (stereo not drawn),6.11
20,Cc1cc(N2CCOCC2)nc2ccc(NC(=S)NCCC(C)C)cc12,-64.1
21,O=C(O)c1ccc(/C=N/Nc2ncc(Cl)cc2Cl)cc1,18
